This is an account of results in the supplement of paper PMC4604168 (melanoma cell lines).

The other results are listed elsewhere or left out. Repeats are few or missing, and single values can be far off.
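Also: cells treated in 1,536-well plates, then fixed and DAPI-stained, with nuclei counted from automated high-throughput microscope images.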

The subject of the assay is MZ2-MEL. In words: cell count relative to DMSO control; melanoma cells; higher = more viable cells. As to conditions: library dose: standard library concentration; 72 h.
`Cc1cc(Nc2cc(N3CCN(C)CC3)nc(Sc3ccc(NC(=O)C4CC4)cc3)n2)n[nH]1` [Tozasertib] + Cc1cn(-c2cc(NC(=O)c3ccc(C)c(Nc4nccc(-c5cccnc5)n4)c3)cc(C(F)(F)F)c2)cn1 [nilotinib] (first compound 0.03 µM, partner dose 1 µM) had a cell count of 69.2%.

On to `Cc1cc(Nc2cc(N3CCN(C)CC3)nc(Sc3ccc(NC(=O)C4CC4)cc3)n2)n[nH]1` [Tozasertib] + O=C(O)C(=O)Nc1sc2c(c1C(=O)O)CCNC2 [TCS401] (first compound 0.03 µM, partner dose 8.33333 µM), for which the cell count came to 79.1%.

In turn, `Cc1cc(Nc2cc(N3CCN(C)CC3)nc(Sc3ccc(NC(=O)C4CC4)cc3)n2)n[nH]1` [Tozasertib] + O=S(=O)(c1ccccc1)N(CC(F)(F)F)c1ccc(C(O)(C(F)(F)F)C(F)(F)F)cc1 [T0901317] (first compound 0.03 µM, partner dose 7 µM) returned a cell count of 54.7%.

For `CC[C@]1(O)C[C@H]2CN(CCc3c([nH]c4ccccc34)[C@@](C(=O)OC)(c3cc4c(cc3OC)N(C=O)[C@H]3[C@@](O)(C(=O)OC)[C@H](OC(C)=O)[C@]5(CC)C=CCN6CC[C@]43[C@@H]65)C2)C1` [vincristine] + O=C(/C=C/c1cccnc1)NCCCCC1CCN(C(=O)c2ccccc2)CC1 [FK866] (first compound 0.0005 µM, partner dose 0.05 µM), the cell count amounted to 33.4%.

The compound `Cc1cc(Nc2cc(N3CCN(C)CC3)nc(Sc3ccc(NC(=O)C4CC4)cc3)n2)n[nH]1` [Tozasertib] + OCCn1cc(-c2cnc3nnn(Cc4ccc5ncccc5c4)c3n2)cn1 [PF04217903] (first compound 0.03 µM, partner dose 5 µM) yielded a cell count of 71.5%.

Turning to `CC[C@]1(O)C[C@H]2CN(CCc3c([nH]c4ccccc34)[C@@](C(=O)OC)(c3cc4c(cc3OC)N(C=O)[C@H]3[C@@](O)(C(=O)OC)[C@H](OC(C)=O)[C@]5(CC)C=CCN6CC[C@]43[C@@H]65)C2)C1` [vincristine] + C[C@@H]1CCN(C(=O)CC#N)C[C@@H]1N(C)c1ncnc2[nH]ccc12 [CP690550] (first compound 0.0005 µM, partner dose 5 µM), the cell count amounted to 81.1%.

`Cc1cc(Nc2cc(N3CCN(C)CC3)nc(Sc3ccc(NC(=O)C4CC4)cc3)n2)n[nH]1` [Tozasertib] + CCCCCCCCCCCCCCCCCCOP(=O)([O-])OC1CC[N+](C)(C)CC1 [Perifosine] (first compound 0.03 µM, partner dose 2 µM) displayed a cell count of 72.8%.

Compound `CC[C@]1(O)C[C@H]2CN(CCc3c([nH]c4ccccc34)[C@@](C(=O)OC)(c3cc4c(cc3OC)N(C=O)[C@H]3[C@@](O)(C(=O)OC)[C@H](OC(C)=O)[C@]5(CC)C=CCN6CC[C@]43[C@@H]65)C2)C1` [vincristine] + CCCS(=O)(=O)Nc1ccc(F)c(C(=O)c2c[nH]c3ncc(Cl)cc23)c1F [PLX4720] (first compound 0.0005 µM, partner dose 0.4 µM) gave a cell count of 83.8%.

On to `Cc1cc(Nc2cc(N3CCN(C)CC3)nc(Sc3ccc(NC(=O)C4CC4)cc3)n2)n[nH]1` [Tozasertib] + Cc1nc(Nc2ncc(C(=O)Nc3c(C)cccc3Cl)s2)cc(N2CCN(CCO)CC2)n1 [dasatanib] (first compound 0.03 µM, partner dose 0.02 µM), for which the cell count is 37.1%.

For the compound `CC[C@]1(O)C[C@H]2CN(CCc3c([nH]c4ccccc34)[C@@](C(=O)OC)(c3cc4c(cc3OC)N(C=O)[C@H]3[C@@](O)(C(=O)OC)[C@H](OC(C)=O)[C@]5(CC)C=CCN6CC[C@]43[C@@H]65)C2)C1` [vincristine] + COc1ccc2c(c1)CCC1C2CCC2(C)C(NCCCCCCN3C(=O)C=CC3=O)CCC12 [U73122] (first compound 0.0005 µM, partner dose 2 µM), the cell count is 92%.

Take `Cc1cc(Nc2cc(N3CCN(C)CC3)nc(Sc3ccc(NC(=O)C4CC4)cc3)n2)n[nH]1` [Tozasertib] + N#Cc1c(O)c2c(-c3ccc(-c4ccccc4O)cc3)csc2[nH]c1=O [A769662] (first compound 0.03 µM, partner dose 10 µM): the cell count was determined as 91.2%.

Compound `Cc1cc(Nc2cc(N3CCN(C)CC3)nc(Sc3ccc(NC(=O)C4CC4)cc3)n2)n[nH]1` [Tozasertib] + Cn1cncc1[C@@](N)(c1ccc(Cl)cc1)c1ccc2c(c1)c(-c1cccc(Cl)c1)cc(=O)n2C [tipifarnib] (first compound 0.03 µM, partner dose 0.05 µM) displayed a cell count of 109%.

For `Cc1cc(Nc2cc(N3CCN(C)CC3)nc(Sc3ccc(NC(=O)C4CC4)cc3)n2)n[nH]1` [Tozasertib] + C#Cc1cccc(Nc2ncnc3cc(OCCOC)c(OCCOC)cc23)c1 [erlotinib] (first compound 0.03 µM, partner dose 4 µM), the cell count was 56.3%.

`Cc1cc(Nc2cc(N3CCN(C)CC3)nc(Sc3ccc(NC(=O)C4CC4)cc3)n2)n[nH]1` [Tozasertib] + COc1cc(N2CCC(N3CCN(C)CC3)CC2)ccc1Nc1ncc(Cl)c(Nc2ccccc2S(=O)(=O)C(C)C)n1 [NVP-TAE684] (first compound 0.03 µM, partner dose 0.4 µM) gave a cell count of 52.4%.

The compound `CC[C@]1(O)C[C@H]2CN(CCc3c([nH]c4ccccc34)[C@@](C(=O)OC)(c3cc4c(cc3OC)N(C=O)[C@H]3[C@@](O)(C(=O)OC)[C@H](OC(C)=O)[C@]5(CC)C=CCN6CC[C@]43[C@@H]65)C2)C1` [vincristine] + CCc1ccc(CCOc2ccc(CC3SC(=O)NC3=O)cc2)nc1 [pioglitazone] (first compound 0.0005 µM, partner dose 10 µM) registered a cell count of 33.8%.

The compound `Cc1cc(Nc2cc(N3CCN(C)CC3)nc(Sc3ccc(NC(=O)C4CC4)cc3)n2)n[nH]1` [Tozasertib] + COc1cc(Nc2ncc(F)c(Nc3ccc4c(n3)NC(=O)C(C)(C)O4)n2)cc(OC)c1OC [Tamatinib] (first compound 0.03 µM, partner dose 2 µM) gave a cell count of 65.7%.

Turning to `Cc1cc(Nc2cc(N3CCN(C)CC3)nc(Sc3ccc(NC(=O)C4CC4)cc3)n2)n[nH]1` [Tozasertib] + C[C@@H](Oc1cc(-c2cnn(C3CCNCC3)c2)cnc1N)c1c(Cl)ccc(F)c1Cl [Crizotinib] (first compound 0.03 µM, partner dose 1 µM), the cell count came to 55.6%.

With `CC[C@]1(O)C[C@H]2CN(CCc3c([nH]c4ccccc34)[C@@](C(=O)OC)(c3cc4c(cc3OC)N(C=O)[C@H]3[C@@](O)(C(=O)OC)[C@H](OC(C)=O)[C@]5(CC)C=CCN6CC[C@]43[C@@H]65)C2)C1` [vincristine] + CN(NC(=O)CC(=O)NN(C)C(=S)c1ccccc1)C(=S)c1ccccc1 [STA4783] (first compound 0.0005 µM, partner dose 0.03 µM), the cell count was determined as 105%.

With `CC[C@]1(O)C[C@H]2CN(CCc3c([nH]c4ccccc34)[C@@](C(=O)OC)(c3cc4c(cc3OC)N(C=O)[C@H]3[C@@](O)(C(=O)OC)[C@H](OC(C)=O)[C@]5(CC)C=CCN6CC[C@]43[C@@H]65)C2)C1` [vincristine] + NC1(c2ccc(-c3nc4ccn5c(=O)[nH]nc5c4cc3-c3ccccc3)cc2)CCC1 [MK2206] (first compound 0.0005 µM, partner dose 2 µM), the cell count was 113%.

The compound `CC[C@]1(O)C[C@H]2CN(CCc3c([nH]c4ccccc34)[C@@](C(=O)OC)(c3cc4c(cc3OC)N(C=O)[C@H]3[C@@](O)(C(=O)OC)[C@H](OC(C)=O)[C@]5(CC)C=CCN6CC[C@]43[C@@H]65)C2)C1` [vincristine] + O=C(O)c1ccc(-c2c[nH]c3ncc(-c4ccccc4)cc23)cc1C1CCCC1 [GSK650394] (first compound 0.0005 µM, partner dose 0.8 µM) returned a cell count of 94.3%.

`CC[C@]1(O)C[C@H]2CN(CCc3c([nH]c4ccccc34)[C@@](C(=O)OC)(c3cc4c(cc3OC)N(C=O)[C@H]3[C@@](O)(C(=O)OC)[C@H](OC(C)=O)[C@]5(CC)C=CCN6CC[C@]43[C@@H]65)C2)C1` [vincristine] + COc1ccc(C2=N[C@@H](c3ccc(Cl)cc3)[C@@H](c3ccc(Cl)cc3)N2C(=O)N2CCNC(=O)C2)c(OC(C)C)c1 [Nutlin-3] (first compound 0.0005 µM, partner dose 0.5 µM) yielded a cell count of 98.6%.

With `N#CC[C@H](C1CCCC1)n1cc(-c2ncnc3[nH]ccc23)cn1` [ruxolitinib] + CC(=O)c1c(C)c2cnc(Nc3ccc(N4CCNCC4)cn3)nc2n(C2CCCC2)c1=O [palbociclib] (first compound 5 µM, partner dose 0.2 µM), the cell count stood at 60%.
